The labels stand for the following.
T1: UNK ZnF1-3 (human, UniProt Q9C0B0 31-174)
T1 sequence: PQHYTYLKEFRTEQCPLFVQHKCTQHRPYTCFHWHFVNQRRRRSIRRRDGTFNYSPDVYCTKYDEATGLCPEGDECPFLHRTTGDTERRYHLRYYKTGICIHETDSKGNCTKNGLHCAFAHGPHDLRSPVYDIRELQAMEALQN

B1: chr5:128440902:128440903:+_ENSG00000066583_ENST00000173527|hu_mus|hu_hu_hu_mus_True|78_98 (ssRNA)
RNA: GGGAGUUCUACAGUCCGACGAUCUUGAACGGUGCUGCCAAGACCUUUGGGGUAUUGUUCUGUUACAAUAACUGGAAUCCCUAAGAUCCGAGCUCCUUGCAACAGUCUCUGUCCCACACUAAUGAUGUCCCCAAAGUAUUUGAUCAACAGAGGAUUGAGCAUCA
B2: chr2:48026839:48026840:+_ENSG00000116062_ENST00000540021|hu_hu|hu_hu_hu_mus_False|18_18 (ssRNA)
RNA: GGGAGUUCUACAGUCCGACGAUCAUAGUGAGCCACUAGCGUCCUAAAUCUGGAACAGUGGCGGUCAUCCGAAAACUGGCCGAUGAAAAACUUGCCCAGUGAAGUGUCCACAAAGCACACACCAUAUACACGAGUGUGACCAGACAACAGAGGAUUGAGCAUCA
B3: chr8:48265483:48265484:-_ENSMUSG00000038143_ENSMUST00000079195|mus_hu|FALSE|FALSE (ssRNA)
RNA: GGGAGUUCUACAGUCCGACGAUCAUAUCUUAAAAAGUAACACAAUCCAAAAUGGAUAUUUCACACAACACUACAUAAACAACAUGAACACAGUAUCACCAUAGGGAGGGACUUUCAAAUAUAGACUUACAAAAAUCCCUGUCCCAACAGAGGAUUGAGCAUCA
B4: chr1:225611761:225611762:-_ENSG00000143815_ENST00000272163|hu_mus|hu_hu_hu_mus_True|1_58 (ssRNA)
RNA: GGGAGUUCUACAGUCCGACGAUCCCAGGCCAUCGGCCUCUGACCACUUCACCCUCAACAAACUUCCUACUUGGCAUUUUCUAUAAUUAGUCUGGCCGCGCUCCGGCGGGAACUCCAGCCACUCCAGGACAGUCACCCGCACAGCAACAGAGGAUUGAGCAUCA
B5: chr11:10830335:10830336:-_ENSG00000110321_ENST00000339995|hu_mus|FALSE|FALSE (ssRNA)
RNA: GGGAGUUCUACAGUCCGACGAUCGCAGCUGCCUCCUCUGGAUCCGGUCGUCGGGGACGGGGAAGGGAGGGGGAAGGGGAACGGAAAACAAAAAAGGGGGAGGGAAGGGGGAGGAAGGAGACGCGGCCGGCUUGAAAGUCUCAGCAACAGAGGAUUGAGCAUCA
B6: chr1:220276048:220276049:+_ENSG00000067704_ENST00000302637|hu_hu|FALSE|FALSE (ssRNA)
RNA: GGGAGUUCUACAGUCCGACGAUCGCAAACAGCUUCAUUGGCUGGAAUCGUCCAAGGUUGUGUGGUCCAGACCAAAAUACUAACAGGAGAUGAACCAUCUAUAAGAGAUGCCAAUUUUGGAGAAGGCUUUAAGAGAGGAAAUUUCAACAGAGGAUUGAGCAUCA
B7: chr2:48026839:48026840:+_ENSG00000116062_ENST00000540021|hu_hu|hu_hu_hu_mus_False|38_38 (ssRNA)
RNA: B2 RNA with G105A, C117A, U126C
B8: 74336472_74336592_942_3pUTR_ENSG00000077514_ENST00000263681|human|control|control (ssRNA)
RNA: GGGAGUUCUACAGUCCGACGAUCAACAGGCUCUGCUUUUUUGCUGGAUUUUUUCAGGCCUGCAGGAGUUGCCAGCUUUGGUUCCGUGACAGACACUGUAGGCUGCUCCACUAUUUUUUCUUCUUUCACUGCUUGUUCUGAGUCCAACAGAGGAUUGAGCAUCA
B9: chr4:25749455:25749456:-_ENSG00000091490_ENST00000264868|hu_hu|motif|central (ssRNA)
RNA: GGGAGUUCUACAGUCCGACGAUCGGAAGCACUAGGACCCUAGAAAAAUUCAAGGAGAAAAAUGUAAACCAAUUUACAAAGCGGUUGCCCUCCCUGCAUUUCCAGGCACAAACAAUUUAUUUCAAGGUGCCUUAUAACUGCUAGCAACAGAGGAUUGAGCAUCA
B10: chr14:96997824:96997825:+_ENSG00000090060_ENST00000216277|hu_mus|motif|central (ssRNA)
RNA: GGGAGUUCUACAGUCCGACGAUCGUUUUUAAGCAGACUGUCAUCUCGUAGGUCCAAAUCUUCUGGAAUAGUCUGCAGUGCGGAUCUUGCAAACAAAAUAUCAAUCUCUAUUCCAUCAAAACAGAGUUUGAUAACUGGUACAAACAACAGAGGAUUGAGCAUCA
B11: chr14:66974463:66974464:+_ENSMUSG00000022044_ENSMUST00000074523|mus_hu|mus_mus_mus_hu_False|68_68 (ssRNA)
RNA: GGGAGUUCUACAGUCCGACGAUCUUGUAGGACGACUUAUUCAGGGGAUCGGCCAGGAAGCAGGAGCAGAACAGAGACACCAGCGGGAGCUCCUUCAUCUUCUCUUUGUAGGCAGCAAGGGUCAUGUUUCUGGGAUCUGGUGGCCAACAGAGGAUUGAGCAUCA
B12: 23912569_23912689_5974_CDS_ENSG00000151835_ENST00000382298|human|control|control (ssRNA)
RNA: GGGAGUUCUACAGUCCGACGAUCACACUCUACUGUUUUCUGUGACAACUCAUCUGAUGGCUUUUUUGAUUGGCCAGACUUAGCCAUUUCAAAGAGAGCAGCUGGGUCAUCAUCUGGACCUCUAAAAAGUGGCGACUGUAAAUCCAACAGAGGAUUGAGCAUCA
B13: chr14:53325254:53325255:-_ENSG00000073712_ENST00000341590|hu_mus|motif|central (ssRNA)
RNA: GGGAGUUCUACAGUCCGACGAUCGACCACCUUGCAGUCUACUUCGGUACAGAUGAAGGACAACCGGACCUCAUCUGCAAACUCGGCAGUGACCAUCUUGAUCUCCCAGUUGACAUUCCACUGCUUCAUGUUGCUGAACCGCCACAACAGAGGAUUGAGCAUCA
B14: 120201867_120205416_288_CDS_ENSMUSG00000026374_ENSMUST00000027623|mouse|control|control (ssRNA)
RNA: GGGAGUUCUACAGUCCGACGAUCCACGAACCGCCAAUGCUCAUGAAACCUGUAAUACUGCUCAGCGGGGAACUUGGUCUUCAGGGACGUGAGAUGUGUUUUUACUGUACUGAAAUGUUCUCUCGCUUUCAAGCACCUCUUUGGCAACAGAGGAUUGAGCAUCA
B15: 1054960_1056412_1422_CDS_ENSG00000107937_ENST00000545048|human|control|control (ssRNA)
RNA: GGGAGUUCUACAGUCCGACGAUCGAUUUCUGGUAUCUUAUCAUGUUUUUCAGACAAAUUCAUUAAAUCCCAGUACUUCUGAAGAUCCAAAAUAUAAUCAUCUCCCAUUUCCAGCUCAAGAUCUCGUUCCCUCUUCUUCCUGGACAACAGAGGAUUGAGCAUCA
B16: chr1:76254992:76254993:+_ENSG00000137955_ENST00000319942|hu_hu|FALSE|FALSE (ssRNA)
RNA: GGGAGUUCUACAGUCCGACGAUCCAGCGUAAGAAUCUGGACAGCACUAAGAGUGUAUAAAAGAUGAGGAUCAUGUCCGAUACUAGCACUUAUUCCACCACAUUCAUGUUGGCAAGACUUAAUAAAUGCCAGAAUCUCUUCUCUCAACAGAGGAUUGAGCAUCA
B17: chr17:66526506:66526507:+_ENSG00000108946_ENST00000358598|hu_hu|motif|central (ssRNA)
RNA: GGGAGUUCUACAGUCCGACGAUCGUACUGCUGGAUGUUUCGUUUGAGGAUGUCUGAGCAUGGGCCAAGAACACGUUCAAAUCGGGGUCGGUCCAGCUUAACGCACUUCAAGGGGCCACGAGCAACAACUGUGGCAGCACGAGGCAACAGAGGAUUGAGCAUCA
B18: chr1:186326634:186326635:-_ENSG00000047410_ENST00000367478|hu_hu|motif|central (ssRNA)
RNA: GGGAGUUCUACAGUCCGACGAUCGGCCACUAAGAGACGUUGAUUUUGUUGUUGAAGCUCUUCAAUAUUUCUGUAAGAUACGGGAUGCUGUGAUAUUACCUCAGAUGAACUACUUAUAUCAGCAGAGCUUACUUCCUCAUCACGCAACAGAGGAUUGAGCAUCA
B19: chr9:80412558:80412559:-_ENSG00000156052_ENST00000286548|hu_hu|motif|central (ssRNA)
RNA: GGGAGUUCUACAGUCCGACGAUCGGUGGGGACUCGAACUCUAAGCACAUCUUGUUGCGUAGGCAGGUAGGCAGGGUCAGCGGCGCGGUCCAAGUCAUUAAGAUAGUAUUUGGUAGAGUCAGAUAAUUGAUAUUCUCGUCGUCUCAACAGAGGAUUGAGCAUCA
B20: chr10:126435856:126435857:+_ENSMUSG00000078429_ENSMUST00000105256|mus_mus|FALSE|FALSE (ssRNA)
RNA: GGGAGUUCUACAGUCCGACGAUCAGUGGAAACCCUUACCUGGCCCUUUAUCAAACUGGUCCUGUGUCCAAAGCUCCCCCUAUAAGAGGGACAGGAACGUCAGGCUUUUGAUGCGAAGCCCAAUCAGACACACACUGUGUCCCUCAACAGAGGAUUGAGCAUCA
B21: chr6:75965845:75965846:-_ENSG00000112697_ENST00000230461|hu_hu|motif|central (ssRNA)
RNA: GGGAGUUCUACAGUCCGACGAUCAUUUGCUUUCAUAAUAUAAAAUUAAAUGGUAAUGUCAGCUGUAUUACUACUGUUUCGGUAUUUAUGAUUAAUUACUAGCAGUACAACUCCCAGAAGGAAGGAGAUGGAUCCAACAGCGAUCAACAGAGGAUUGAGCAUCA
B22: chr5:145543945:145543946:-_ENSG00000133706_ENST00000545646|hu_hu|hu_hu_hu_mus_True|48_68 (ssRNA)
RNA: GGGAGUUCUACAGUCCGACGAUCCUGAACGGCCAGUGGUGGGAAAUAAUCAAGCCAGUGCUCUGCUUCAGAAAAUUUCACUAUGUCUUCAUCAGACAGCCCAAGGGAUUUCAUAAUGUCCCACUGGUACUUAGAAGAUCCUGCCAACAGAGGAUUGAGCAUCA

Positions count from the first letter of the chain named. The list shows a part of the results.

In this assay the target is T1, UNK ZnF1-3. The assay is described as follows: nsRBNS (natural sequence RNA bind-n-seq); RBNS binding buffer (assumed for nsRBNS): 25 mM Tris pH 7.5, 150 mM KCl, 3 mM MgCl2, 0.01% Triton X-100, 500 ug/ml BSA, 20 U/ml SUPERase-In, 4 C; UNK is unkempt and MSI1 is Musashi-1; names of the RNAs are library labels; protein concentration not given here; high values mean tight binding.
In turn, B1 registered a binding signal of 0.539 enrichment R.

B2 displayed a binding signal of 1.18 enrichment R.

Molecule B3 yielded a binding signal of 1.22 enrichment R.

With B4, the binding signal came to 1.17 enrichment R.

B5: the binding signal was determined as 2.21 enrichment R.

As for B6, the binding signal was 1.83 enrichment R.

B7 came in with a binding signal of 1.07 enrichment R.

Molecule B8 registered a binding signal of 0.352 enrichment R.

B9 had a binding signal of 1.24 enrichment R.

B10 displayed a binding signal of 0.636 enrichment R.

Regarding B11, the binding signal turned out to be 2.09 enrichment R.

The molecule B12 returned a binding signal of 0.77 enrichment R.

Regarding B13, the binding signal is 0.769 enrichment R.

Regarding B14, the binding signal came out at 0.94 enrichment R.

Turning to B15, the binding signal was found to be 0.652 enrichment R.

B16 came in with a binding signal of 1.13 enrichment R.

For B17, the binding signal amounted to 2.05 enrichment R.

In turn, B18 gave a binding signal of 1.09 enrichment R.

Turning to B19, the binding signal is 1.24 enrichment R.

B20 gave a binding signal of 0.673 enrichment R.

Molecule B21 registered a binding signal of 1.09 enrichment R.

As for B22, the binding signal was 1.13 enrichment R.

The values are drawn from article PMC12136788.
